Procedure: In table 1, the log P values were determined in accordance with EEC Directive 79/831 Annex V.A8 by HPLC (High Performance Liquid Chromatography) on a reversed-phase column (C 18), using the method described below:
temperature: 40° C.; mobile phases: 0.1% aqueous formic acid and acetonitrile; linear gradient from 10% acetonitrile to 95% acetonitrile;
Calibration was carried out using unbranched alkan-2-ones (comprising 3 to 16 carbon atoms) with known log P values (determination of the log P values by the retention times using linear interpolation between two successive alkanones). lambda-max-values were determined using UV-spectra from 200 nm to 400 nm and the peak values of the chromatographic signals.

Q: Which logP does the source give for `C[Si](C)(c1ccccc1)c1c(Oc2cnc3ccccc3c2)ccnc1F` [I.04] here?
A: 4.43

Q: With `C=C[Si](C)(C)c1c(Oc2cnc3ccccc3c2)ccnc1F` [I.05] as the molecule, how does the logP read?
A: 4.13

Q: With `CC[Si](C)(C)c1c(Oc2cnc3ccccc3c2)ccnc1F` [I.07] as the molecule, how does the logP read?
A: 4.35

Q: With `CC(C)[Si](C)(C)c1c(Oc2cnc3ccccc3c2)ccnc1F` [I.08] as the molecule, how does the logP read?
A: 4.75

Q: For `CCC[Si](C)(C)c1c(Oc2cnc3ccccc3c2)ccnc1F` [I.09], which logP is on record?
A: 4.84

Q: For `CCCC[Si](C)(C)c1c(Oc2cnc3ccccc3c2)ccnc1F` [I.10], which logP is on record?
A: 5.40

Q: Which logP does the source give for `C[Si](C)(c1cccs1)c1c(Oc2cnc3ccccc3c2)ccnc1F` [I.11] here?
A: 4.33

Q: Which logP does the source give for `COc1ccc([Si](C)(C)c2c(Oc3cnc4ccccc4c3)ccnc2F)cc1` [I.12] here?
A: 4.33

Q: With `C[Si](C)(C)c1c(Oc2cnc3ccccc3c2)ccnc1Cl` [I.13] as the molecule, how does the logP read?
A: 3.39

Q: Which logP does the source give for `Cc1cc2ncn(Cc3sccc3[Si](C)(C)C)c2cc1C` [I.17] here?
A: 2.40

Q: With `Cc1nc2c(F)c(F)ccc2nc1Oc1nn(C)c(C(F)(F)F)c1[Si](C)(C)C` [I.20] as the molecule, how does the logP read?
A: 5.39

Q: With `Cc1nc2c(F)c(F)ccc2nc1Oc1nocc1[Si](C)(C)C` [I.21] as the molecule, how does the logP read?
A: 4.30

Q: Which logP does the source give for `Cc1nc2c(F)c(F)ccc2nc1Oc1nn(C)c(C(F)(F)F)c1[Si](C)(C)O` [I.22] here?
A: 3.33

Q: Which logP does the source give for `Cc1nc2c(F)c(F)ccc2cc1Nc1ccnc(C(F)(F)F)c1[Si](C)(C)C` [I.27] here?
A: 4.27

From patent US20200231607A1, “TRISUBSTITUTEDSILYLHETEROARYLOXYQUINOLINES AND ANALOGUES” (Bayer Aktiengesellschaft, priority 2017, published 2020)
